{
  "source": "the supplement of paper PMC10037445",
  "key": {"RAW-Dual [1]": {"tested_on": "RAW-Dual", "assay": "IRF Lucia reporter activity, fold change vs agonist alone; cytotoxicity flag (confluency mask): not cytotoxic; higher = enhanced IRF activity", "how_it_was_run": "(§1)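 Reporter activity is given as fold change relative to agonist-alone wells. To measure it, 50 nL of library stock was pin-tooled onto RAW-Dual macrophages (50,000 cells/well, DMEM, 384-well plates), a PRR agonist followed 1 h later, and cells stayed at 37 °C, 5% CO2. Twenty hours on, supernatant was assayed for IRF (QuantiLuc luminescence) and NF-κB (QuantiBlue, 620 nm absorbance), and wells under 70% of agonist-control IncuCyte confluency in both mask sets were marked cytotoxic.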"}, "RAW-Dual [2]": {"tested_on": "RAW-Dual", "assay": "IRF Lucia reporter activity, fold change vs agonist alone; higher = enhanced IRF activity", "details": "agonist: MPLA (TLR4) […]", "how_it_was_run": "as §1"}, "RAW-Dual [3]": {"tested_on": "RAW-Dual", "assay": "IRF Lucia reporter activity, fold change vs agonist alone; cytotoxicity flag (confluency mask): cytotoxic (confluency <70% of control); higher = enhanced IRF activity", "how_it_was_run": "as §1"}, "[4]": {"details": "agonist: 3'3'-cGAMP (STING) 10 ug/mL"}, "[5]": {"details": "library stock concentration (final ~1000-fold dilution): 10 mM, cytotoxicity flag (confluency mask): not cytotoxic"}},
  "note": "Whole data set: some 2,900 compounds, median “IRF Lucia reporter activity, fold change vs agonist alone” near 0.9, cut for the highest 2% near 2.8. The list shows a part of the results.",
  "data": [
    {"smiles": "Cc1cc(C(=O)NC(C)(C)C)cc(C#Cc2ccc3c4c(oc3c2)C(C)(C)c2cc(NS(C)(=O)=O)ccc2C4=O)n1", "note": "(library stock concentration (final ~1000-fold dilution): 10 mM)", "values": [
      {"measurement": "IRF Lucia reporter activity", "setting": "RAW-Dual [1]; [4]", "value": 0.196},
      {"measurement": "IRF Lucia reporter activity", "setting": "RAW-Dual [1]; agonist: LPS (TLR4) 0.1 ug/mL", "value": 0.504}
    ]},
    {"smiles": "CC(=O)OC(CC=C(C)C)C1=CC(=O)c2c(O)ccc(O)c2C1=O", "note": "(stereo not given) (library stock concentration (final ~1000-fold dilution): 2 mM)", "values": [
      {"measurement": "IRF Lucia reporter activity", "setting": "RAW-Dual [1]; [4]", "value": 0.0252},
      {"measurement": "IRF Lucia reporter activity", "setting": "RAW-Dual [1]; agonist: LPS (TLR4) 0.1 ug/mL", "value": 0.288}
    ]},
    {"smiles": "C[N+](C)(C)NCCC(=O)O", "note": "(library stock concentration (final ~1000-fold dilution): 10 mM water)", "values": [
      {"measurement": "IRF Lucia reporter activity", "setting": "RAW-Dual [1]; [4]", "value": 1.05},
      {"measurement": "IRF Lucia reporter activity", "setting": "RAW-Dual [1]; agonist: LPS (TLR4) 0.1 ug/mL", "value": 0.979}
    ]},
    {"smiles": "C[N+](C)(C)NCCC(=O)O", "values": [
      {"measurement": "IRF Lucia reporter activity", "setting": "RAW-Dual [2]; library stock concentration (final ~1000-fold dilution): 10 mM water, cytotoxicity flag (confluency mask): not cytotoxic", "value": 1.25}
    ]},
    {"smiles": "CCOc1ccccc1OC(c1ccccc1)C1CNCCO1.CS(=O)(=O)O", "note": "(stereo not given)", "values": [
      {"measurement": "IRF Lucia reporter activity", "setting": "RAW-Dual [2]; [5]", "value": 0.611}
    ]},
    {"smiles": "CCOc1ccccc1OC(c1ccccc1)C1CNCCO1.CS(=O)(=O)O", "note": "(stereo not given) (library stock concentration (final ~1000-fold dilution): 10 mM)", "values": [
      {"measurement": "IRF Lucia reporter activity", "setting": "RAW-Dual [1]; [4]", "value": 1.03},
      {"measurement": "IRF Lucia reporter activity", "setting": "RAW-Dual [1]; agonist: LPS (TLR4) 0.1 ug/mL", "value": 0.984}
    ]},
    {"smiles": "CCOC(=O)C1=CC(OC(CC)CC)C(NC(C)=O)C(N)C1", "note": "(stereo not given)", "values": [
      {"measurement": "IRF Lucia reporter activity", "setting": "RAW-Dual [2]; library stock concentration (final ~1000-fold dilution): 2 mM, cytotoxicity flag (confluency mask): not cytotoxic", "value": 1.32}
    ]},
    {"smiles": "CCOC(=O)C1=CC(OC(CC)CC)C(NC(C)=O)C(N)C1", "note": "(stereo not given) (library stock concentration (final ~1000-fold dilution): 2 mM)", "values": [
      {"measurement": "IRF Lucia reporter activity", "setting": "RAW-Dual [1]; [4]", "value": 0.98},
      {"measurement": "IRF Lucia reporter activity", "setting": "RAW-Dual [1]; agonist: LPS (TLR4) 0.1 ug/mL", "value": 1.07}
    ]},
    {"smiles": "CC(c1ncncc1F)C(O)(Cn1cncn1)c1ccc(F)cc1F", "note": "(stereo not given) (library stock concentration (final ~1000-fold dilution): 10 mM)", "values": [
      {"measurement": "IRF Lucia reporter activity", "setting": "RAW-Dual [1]; [4]", "value": 1.11},
      {"measurement": "IRF Lucia reporter activity", "setting": "RAW-Dual [1]; agonist: LPS (TLR4) 0.1 ug/mL", "value": 0.893}
    ]},
    {"smiles": "CC(c1ncncc1F)C(O)(Cn1cncn1)c1ccc(F)cc1F", "note": "(stereo not given)", "values": [
      {"measurement": "IRF Lucia reporter activity", "setting": "RAW-Dual [2]; [5]", "value": 0.639}
    ]},
    {"smiles": "O=C(O)c1ccc2c(c1)nc(Nc1cccc(Cl)c1)c1ccncc12", "note": "(library stock concentration (final ~1000-fold dilution): 10 mM)", "values": [
      {"measurement": "IRF Lucia reporter activity", "setting": "RAW-Dual [1]; [4]", "value": 0.908},
      {"measurement": "IRF Lucia reporter activity", "setting": "RAW-Dual [1]; agonist: LPS (TLR4) 0.1 ug/mL", "value": 0.197}
    ]},
    {"smiles": "O=C(O)c1ccc2c(c1)nc(Nc1cccc(Cl)c1)c1ccncc12", "values": [
      {"measurement": "IRF Lucia reporter activity", "setting": "RAW-Dual [2]; [5]", "value": 0.637}
    ]},
    {"smiles": "O=C1CC(=O)c2c(Cl)c(Cl)c(Cl)c(Cl)c21", "note": "(library stock concentration (final ~1000-fold dilution): 10 mM)", "values": [
      {"measurement": "IRF Lucia reporter activity", "setting": "RAW-Dual [1]; [4]", "value": 0.849},
      {"measurement": "IRF Lucia reporter activity", "setting": "RAW-Dual [1]; agonist: LPS (TLR4) 0.1 ug/mL", "value": 0.863}
    ]},
    {"smiles": "O=C1CC(=O)c2c(Cl)c(Cl)c(Cl)c(Cl)c21", "values": [
      {"measurement": "IRF Lucia reporter activity", "setting": "RAW-Dual [2]; [5]", "value": 0.918}
    ]},
    {"smiles": "CNC(=O)c1nn(C)c2c1C(C)(C)Cc1cnc(Nc3ccc(N4CCN(C)CC4)cc3)nc1-2", "values": [
      {"measurement": "IRF Lucia reporter activity", "setting": "RAW-Dual [2]; library stock concentration (final ~1000-fold dilution): 10 mM, cytotoxicity flag (confluency mask): cytotoxic (confluency <70% of control)", "value": 0.165}
    ]},
    {"smiles": "CNC(=O)c1nn(C)c2c1C(C)(C)Cc1cnc(Nc3ccc(N4CCN(C)CC4)cc3)nc1-2", "note": "(library stock concentration (final ~1000-fold dilution): 10 mM)", "values": [
      {"measurement": "IRF Lucia reporter activity", "setting": "RAW-Dual [3]; [4]", "value": 0.123},
      {"measurement": "IRF Lucia reporter activity", "setting": "RAW-Dual [3]; agonist: LPS (TLR4) 0.1 ug/mL", "value": 0.0126}
    ]},
    {"smiles": "Cc1ccc(/C=N/NC(=O)c2ccccc2Oc2ccccc2)o1", "note": "(library stock concentration (final ~1000-fold dilution): 10 mM)", "values": [
      {"measurement": "IRF Lucia reporter activity", "setting": "RAW-Dual [1]; [4]", "value": 1.16},
      {"measurement": "IRF Lucia reporter activity", "setting": "RAW-Dual [1]; agonist: LPS (TLR4) 0.1 ug/mL", "value": 1.03}
    ]},
    {"smiles": "CC(C)(C)OC(=O)NC1CCCCC/C=C\\C2CC2(C(=O)NS(=O)(=O)C2CC2)NC(=O)C2CC(OC(=O)N3Cc4cccc(F)c4C3)CN2C1=O", "note": "(stereo not given) (library stock concentration (final ~1000-fold dilution): 10 mM)", "values": [
      {"measurement": "IRF Lucia reporter activity", "setting": "RAW-Dual [1]; [4]", "value": 0.932},
      {"measurement": "IRF Lucia reporter activity", "setting": "RAW-Dual [1]; agonist: LPS (TLR4) 0.1 ug/mL", "value": 1.13}
    ]},
    {"smiles": "CC(C)(C)OC(=O)NC1CCCCC/C=C\\C2CC2(C(=O)NS(=O)(=O)C2CC2)NC(=O)C2CC(OC(=O)N3Cc4cccc(F)c4C3)CN2C1=O", "note": "(stereo not given)", "values": [
      {"measurement": "IRF Lucia reporter activity", "setting": "RAW-Dual [2]; [5]", "value": 1.04}
    ]},
    {"smiles": "CC1CNC(=O)c2cnn3ccc(nc23)NC(C)c2cc(F)ccc2O1", "note": "(stereo not given) (library stock concentration (final ~1000-fold dilution): 10 mM)", "values": [
      {"measurement": "IRF Lucia reporter activity", "setting": "RAW-Dual [1]; [4]", "value": 0.187},
      {"measurement": "IRF Lucia reporter activity", "setting": "RAW-Dual [1]; agonist: LPS (TLR4) 0.1 ug/mL", "value": 0.804}
    ]},
    {"smiles": "CNc1nc(-c2ccc3c(N)n[nH]c3c2)cc(N2CC(C(=O)NC3CCCCC3)CCC2C)n1", "note": "(stereo not given) (library stock concentration (final ~1000-fold dilution): 10 mM)", "values": [
      {"measurement": "IRF Lucia reporter activity", "setting": "RAW-Dual [1]; [4]", "value": 0.0916},
      {"measurement": "IRF Lucia reporter activity", "setting": "RAW-Dual [1]; agonist: LPS (TLR4) 0.1 ug/mL", "value": 0.976}
    ]},
    {"smiles": "CNc1nc(-c2ccc3c(N)n[nH]c3c2)cc(N2CC(C(=O)NC3CCCCC3)CCC2C)n1", "note": "(stereo not given)", "values": [
      {"measurement": "IRF Lucia reporter activity", "setting": "RAW-Dual [2]; [5]", "value": 1.03}
    ]},
    {"smiles": "Nc1nccc(Oc2ccc3c(C(=O)Nc4cccc(C(F)(F)F)c4)cccc3c2)n1", "note": "(library stock concentration (final ~1000-fold dilution): 10 mM)", "values": [
      {"measurement": "IRF Lucia reporter activity", "setting": "RAW-Dual [1]; [4]", "value": 0.452},
      {"measurement": "IRF Lucia reporter activity", "setting": "RAW-Dual [1]; agonist: LPS (TLR4) 0.1 ug/mL", "value": 0.834}
    ]},
    {"smiles": "Oc1ccc(O)cc1", "values": [
      {"measurement": "IRF Lucia reporter activity", "setting": "RAW-Dual [2]; [5]", "value": 0.096}
    ]},
    {"smiles": "Oc1ccc(O)cc1", "note": "(library stock concentration (final ~1000-fold dilution): 10 mM)", "values": [
      {"measurement": "IRF Lucia reporter activity", "setting": "RAW-Dual [1]; [4]", "value": 0.292},
      {"measurement": "IRF Lucia reporter activity", "setting": "RAW-Dual [1]; agonist: LPS (TLR4) 0.1 ug/mL", "value": 0.0664}
    ]},
    {"smiles": "O=C(/C=C/c1ccc2ccc(C(F)(F)F)cc2n1)c1ccncc1", "note": "(library stock concentration (final ~1000-fold dilution): 10 mM)", "values": [
      {"measurement": "IRF Lucia reporter activity", "setting": "RAW-Dual [3]; [4]", "value": 0.549},
      {"measurement": "IRF Lucia reporter activity", "setting": "RAW-Dual [3]; agonist: LPS (TLR4) 0.1 ug/mL", "value": 0.291}
    ]},
    {"smiles": "CN1CCN(c2cccc(Nc3nc4c(-c5ccc(S(C)(=O)=O)cc5)cccn4n3)c2)CC1", "values": [
      {"measurement": "IRF Lucia reporter activity", "setting": "RAW-Dual [2]; [5]", "value": 0.367}
    ]},
    {"smiles": "CN1CCN(c2cccc(Nc3nc4c(-c5ccc(S(C)(=O)=O)cc5)cccn4n3)c2)CC1", "note": "(library stock concentration (final ~1000-fold dilution): 10 mM)", "values": [
      {"measurement": "IRF Lucia reporter activity", "setting": "RAW-Dual [1]; [4]", "value": 0.0354},
      {"measurement": "IRF Lucia reporter activity", "setting": "RAW-Dual [1]; agonist: LPS (TLR4) 0.1 ug/mL", "value": 0.215}
    ]}
  ]
}
